Source: PubChem BioAssay AID488969 (Vanderbilt High Throughput Screening Facility, 2010)
The full ranking holds about 110,000 compounds; the median of “z-score” is about -0.1, and the highest 2% start at about 2. Some of the results follow.

Target: Metabotropic glutamate receptor 8 (Rattus norvegicus) (UniProt P70579)
Assay: mGluR8 Gi/Go-coupled signaling modulation – cell-based, rat, thallium flux, HTS, primary screen (AID 488969)
Conditions: HEK293 rat mGluR8, GIRK (G protein-gated inwardly rectifying potassium channel) thallium flux, FluoZin2; at 10 µM; stronger effect = higher value; submaximal glutamate (EC20) added with thallium

Chain of UniProt P70579 (P70579 whole entry, looked up): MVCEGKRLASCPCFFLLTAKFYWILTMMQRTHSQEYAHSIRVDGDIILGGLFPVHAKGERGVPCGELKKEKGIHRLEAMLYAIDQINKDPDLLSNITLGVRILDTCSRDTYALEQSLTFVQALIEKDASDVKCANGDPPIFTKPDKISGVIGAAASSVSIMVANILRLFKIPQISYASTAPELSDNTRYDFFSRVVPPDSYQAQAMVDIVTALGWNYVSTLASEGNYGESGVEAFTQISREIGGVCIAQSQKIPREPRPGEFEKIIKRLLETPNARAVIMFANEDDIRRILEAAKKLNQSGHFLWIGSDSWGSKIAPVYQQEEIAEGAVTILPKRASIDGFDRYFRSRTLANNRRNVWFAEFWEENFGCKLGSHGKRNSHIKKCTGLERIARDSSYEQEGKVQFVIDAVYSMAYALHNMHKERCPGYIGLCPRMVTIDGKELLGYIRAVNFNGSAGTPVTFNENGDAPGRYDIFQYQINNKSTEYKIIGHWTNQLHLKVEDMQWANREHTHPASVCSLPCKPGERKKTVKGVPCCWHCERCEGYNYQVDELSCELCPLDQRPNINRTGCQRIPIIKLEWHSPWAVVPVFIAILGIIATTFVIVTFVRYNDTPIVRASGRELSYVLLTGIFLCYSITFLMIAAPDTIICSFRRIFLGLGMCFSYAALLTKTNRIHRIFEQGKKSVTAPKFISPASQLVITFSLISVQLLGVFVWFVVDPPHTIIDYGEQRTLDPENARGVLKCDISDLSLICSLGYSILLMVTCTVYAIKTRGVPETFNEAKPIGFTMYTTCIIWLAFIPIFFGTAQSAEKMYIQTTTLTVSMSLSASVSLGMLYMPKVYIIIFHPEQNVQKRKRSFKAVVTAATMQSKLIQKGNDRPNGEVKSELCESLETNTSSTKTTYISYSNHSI

Row | Compound | z-score
1 | CCN(CC)C(=O)c1sc(NC(=O)c2ccc(OC)c([N+](=O)[O-])c2)c(C#N)c1C | -0.297
2 | CCOc1ccccc1OCC(O)CNC (centres undefined) | -0.205
3 | O=c1ccnc(SCc2ccccc2Cl)[nH]1 | 0.253
4 | CCOC(=O)CSC1=C(C#N)C(c2ccco2)C(C(=O)OCc2ccccc2)=C(C)N1 (centres undefined) | -0.792
5 | O=S(=O)(Cc1ccccc1)N1CCc2ccccc2C1 | -0.226
6 | COc1cccc(OC)c1C(=O)Nc1ccc(Cc2ccncc2)cc1 | -0.044
7 | O=C(CSC(=S)N1CCN(c2ccccc2)CC1)Nc1nc(-c2ccccc2)c(-c2ccccc2)o1 | -0.0942
8 | CCN(C(=O)COc1ccc(C)nc1[N+](=O)[O-])C1CCS(=O)(=O)C1 (centres undefined) | 0.0109
9 | Cc1ccc2nc(C(C)O)[nH]c2c1 (centres undefined) | 0.609
10 | CCOc1ccc2c(c1)nc(SCC(=O)c1cccs1)n2C | -0.425
11 | O=C(Cn1c(=O)n(Cc2ccco2)c(=O)c2c3c(sc21)CCCC3)Nc1ccccc1 | -0.173
12 | O=C(/C=C/c1ccccc1)N1CCN(c2cccc(Cl)n2)CC1 | -0.256
13 | Cc1ccc(N(CC(O)CN2CCCC2)S(=O)(=O)c2ccc(C)cc2)cc1 (centres undefined) | 0.249
14 | Cc1nn(C)c(C)c1S(=O)(=O)N1CCCC(C(=O)N2CCN(c3ccccc3)CC2)C1 (centres undefined) | -0.737
15 | COc1ccc(OC)c(-n2nnnc2SCC(=O)NCCc2ccccc2)c1 | -0.173
16 | COc1ccc(CCNC(=O)C(=O)N2CCCCC2)cc1OC | -0.382
17 | COc1ccc(OC)c(C2=C[N+](=O)C(C)(C)C(C)(C)N2[O-])c1 | -0.0397
18 | CCCCCn1c(=O)[nH]c2c(c1=O)CCC2 | -0.159
19 | C=CCOc1ccc(C2C(C#N)=C(N)N(Nc3ccccc3)C3=C2C(=O)CCC3)cc1OC (centres undefined) | -0.102
20 | CCOC(=O)c1sc(/N=C/Nc2nc(C)c(C(=O)OCC)s2)nc1C | 0.48
21 | COc1cc(C2CC(C(F)(F)F)n3ncc(C(=O)O)c3N2)cc(OC)c1OC (centres undefined) | -0.0559
22 | CC1(C)C(N(O)C(=O)Nc2ccc(Cl)cc2)N(c2ccc(Cl)cc2)C(=O)N1CC(=O)NN (centres undefined) | -0.12

Row | Compound | z-score
23 | Cc1cc2ncn(C3CC(=O)N(Cc4ccc(N5CCCC5=O)cc4)C3=O)c2cc1C (centres undefined) | 0.382
24 | Cc1cc(C)n(-c2nc(-c3ccc(Cl)c(Cl)c3)cs2)n1 | -0.118
25 | CCOC(=O)Cn1c(=O)c(-c2ccccc2NCc2ccccc2)nc2ccccc21 | -0.104
26 | CC(=O)CCN1CCOCC1 | -0.498
27 | C/C(=N\NC(=O)C(=O)Nc1ccc(C)cc1)c1ccncc1 | -0.299
28 | CCOc1ccc2nc(NC(=O)C(CCSC)NS(=O)(=O)c3cccs3)sc2c1 (centres undefined) | -0.564
29 | Cc1ncoc1C(=O)Nc1ccc(Oc2ccccc2)cc1 | 2.26
30 | Cc1ccc(C(=O)/C=C2\NCCNC2=O)cc1 | 1.4
31 | O=C(CSc1nnc(CNc2ccc(F)cc2)n1Cc1ccccc1)N1CCOCC1 | 0.339
32 | O=C1NC(=O)c2cc(NC(=O)C3CCCCC3)ccc21 | -0.231
33 | CN(c1ccccc1C(=O)NCc1ccco1)S(C)(=O)=O | 0.172
34 | O=C(NCCCN1CCOCC1)C1CC(=O)N(C2CCCCC2)C1 (centres undefined) | 1.11
35 | CCc1cccc(NC(=O)Cn2c(=O)oc3cc(S(=O)(=O)N4CCOCC4)ccc32)c1 | 0.177
36 | O=C1C=C(O)CC(c2ccc(Cl)c(Cl)c2)C1 (centres undefined) | 0.382
37 | CC(C)(C)OC(=O)[C@H]1[C@H](c2ccc([N+](=O)[O-])cc2)C2(C(=O)c3ccccc3C2=O)C2c3ccccc3C=NN21 (some centres undefined) | 0.333
38 | O=C(Nc1ccc(N2CCN(C(=O)c3ccc(Cl)cc3)CC2)cc1)c1ccc2c(c1)OCCO2 | 0.185
39 | O=C(CSc1nc2ccccc2s1)NCCOc1ccc(Cl)cc1 | -0.16
40 | Cc1ccc(S(=O)(=O)Nc2ccc3c(c2)CCC3)cc1C | -0.272
41 | CCn1cc(/C=N/NC(=O)c2ccc(C#N)cc2F)c2ccccc21 | -0.41
42 | O=C(NCc1ccco1)C1CC(=O)N(c2ccc(F)cc2)C1 (centres undefined) | 0.992
43 | O=C(CSc1nnnn1C1CCCC1)c1ccc2c(c1)OCCO2 | 0.831
44 | c1ccc(OCCSc2nc3ccccc3[nH]2)cc1 | 2.69

Row | Compound | z-score
45 | Cc1ccccc1NC(=O)/C(=C\c1cccs1)NC(=O)c1ccco1 | 0.0471
46 | Cc1cc(Nc2nc(Cl)c(Cl)cc2Cl)n(-c2ccccc2)n1 | -0.0716
47 | O=C(CCn1c2c(c3ccccc31)CCCC2)NNC(=O)c1ccc([N+](=O)[O-])cc1 | 0.131
48 | COc1ccc(C2C(C(=O)OCC(=O)NC(C)(C)C)CCC(=O)N2c2ccc(C)cc2)cc1OC (centres undefined) | -0.0992
49 | COc1ccc(-c2nc(-c3ccc(Br)o3)no2)cc1 | -0.349
50 | Nc1nc(SCC(=O)Nc2ccccc2)nc2nc3c(cc12)CCCC3 | -0.698
51 | COc1ccc(OC(C)C(=O)N2CCc3ccccc3C2)cc1 (centres undefined) | -0.75
52 | CCOC(=O)N1CCN(CC(O)c2ccc3cc[nH]c3c2)CC1 (centres undefined) | -0.345
53 | CC(=O)Nn1cnc2c(c1=O)C1(CCCCC1)Cc1ccccc1-2 | -0.31
54 | COc1cc(C2Nc3ccccc3C(=O)N2c2ccccc2)ccc1O (centres undefined) | -0.488
55 | CC1CCN(C(=O)c2ccc(-n3cnnn3)cc2)CC1 | -0.0833
56 | CC1CCN(S(=O)(=O)c2ccc(NC(=O)Cn3nnc(-c4ccccc4F)n3)cc2)CC1 | -0.0396
57 | COc1ccc(Nc2nc(NCc3ccco3)nc(N/N=C/c3ccccc3)n2)cc1 | -0.241
58 | Brc1ccc(OCc2nc(-c3ccccn3)n[nH]2)cc1 | -0.18
59 | CCCCCCNC(=O)CC(NS(=O)(=O)c1ccc(NC(C)=O)cc1)C(C)C (centres undefined) | -0.277
60 | CC(=O)c1ccc(N2C(=O)[C@@H]3C(C(=O)CCN4C(=O)c5ccccc5C4=O)=NN[C@@H]3C2=O)cc1 | 0.0874
61 | O=C(Cc1ccc(-n2c(=O)[nH]c3ccsc3c2=O)cc1)N1CCN(c2ccc(Cl)cc2)CC1 | -0.435
62 | CNc1ncc(C(=O)C(C)(C)C)s1 | 0.159
63 | CN(C)C(/C=C/Nc1ccc(F)cc1)=C(C#N)C#N | -0.0377
64 | COC(=O)COc1ccc(S(=O)(=O)Nc2ccc(NC(C)=O)cc2)cc1 | 0.0187
65 | COc1ccnc(NCc2cccnc2)c1C#N | -0.18
66 | COC(=O)N/N=C/c1cc(Cl)c(OCc2ccc(F)cc2)c(OC)c1 | -0.458

Row | Compound | z-score
67 | CN=C1S/C(=C\c2ccc(N3CCOCC3)cc2C)C(=O)N1C | -0.0829
68 | Cc1csc(NC(=O)c2cc3c(s2)CCC3)n1 | -0.258
69 | COc1ccccc1Cn1c(=O)c2ccccc2n2c(SCC(=O)N3CCCCC3)nnc12 | -0.38
70 | O=C(c1cccnc1)N1CCN(Cc2cccc(Br)c2)CC1 | -0.0523
71 | CCCc1cc(=O)[nH]c(SCC(=O)N(CC(C)C)C2CCS(=O)(=O)C2)n1 (centres undefined) | -0.0784
72 | COc1cc2c(cc1NC(=O)CSc1ccc(Cl)cc1)oc1ccccc12 | -0.483
73 | Cc1ncc(C[n+]2csc(CCOC(=O)CC34CC5CC(CC(C5)C3)C4)c2C)c(N)n1 | 0.357
74 | Cc1ccc(S(=O)(=O)NC(CC(=O)N2CCc3ccccc32)c2ccco2)cc1 (centres undefined) | -0.465
75 | COc1ccc(-c2nnc3ccc(SC(C(C)=O)C(C)=O)nn23)cc1OC | -0.0547
76 | COC(=O)c1cc(=O)nc2sc(-c3cccs3)nn12 | -0.0873
77 | CCn1c(=O)cc(OCC(=O)NCCCN2CCC(C)CC2)c2ccccc21 | 0.709
78 | CNC(=O)c1[nH]cnc1C(=O)Nc1ccccc1OC | 0.94
79 | O=S(=O)(c1ccc2c(c1)OCCO2)N1CCN(c2cccc(Cl)c2)CC1 | 0.401
80 | C=CCNC(=O)/C(=C/c1ccccc1OCC)NC(=O)c1ccccc1 | -0.0384
81 | CC(=O)Nc1ccc(S(=O)(=O)NC2(C(F)(F)F)NC(=O)N(C3CCCCC3)C2=O)cc1 (centres undefined) | -0.0965
82 | Cc1cc2ccccc2c(=O)n1CC(=O)NCC(=O)N1CCN(c2cccc(Cl)c2)CC1 | -0.598
83 | CC(C)(C)c1ccc(OCC(=O)NNC(=S)NC(=O)c2ccccc2[N+](=O)[O-])c(Br)c1 | 0.0129
84 | CCN(CC)S(=O)(=O)c1cc(OC)c(Cl)cc1Cl | 0.902
85 | COC(=O)c1cccc(NC(=O)NC23CC4CC(CC(C4)C2)C3)c1 | -0.16
86 | Cc1cccc(NC(=S)N2CCn3cccc3C2c2cccnc2)c1 (centres undefined) | 0.448
87 | CC(=O)Nc1ccnc(-c2cccnc2)n1 | -0.13
88 | COC(=O)c1sc(=S)n(-c2ccccc2)c1N | 0.461

Row | Compound | z-score
89 | COc1cccc(-c2nnc(SC(C(=O)c3c[nH]c4ccccc34)c3ccccc3)n2C)c1 (centres undefined) | -0.273
90 | O=C1C=C(Nc2cccc(Cl)c2)CC(c2ccco2)C1 (centres undefined) | 0.259
91 | Cc1c(O)c2cccnc2[nH]c1=O | 0.271
92 | CCCCC(=O)NCc1ccc2c(c1)cc(C)n2C | -0.0318
93 | COc1ccc(CCN=C(N)NS(=O)(=O)c2ccc(OC)cc2)cc1 | -0.241
94 | O=C(NCCCN1CCOCC1)C1(c2ccccc2)CCCC1 | -0.541
95 | O=c1cc(O)n(-c2ccc(Cl)cc2)c(=S)[nH]1 | -0.295
96 | CCOC(=O)c1sc(NC(=S)NC(=O)CC(C)C)cc1C | 0.291
97 | O=C(Nc1cccc(F)c1)N1CCN(C/C=C/c2ccccc2)CC1 | -0.579
98 | Cc1ccccc1CSCCNC(=O)CSCc1ccc([N+](=O)[O-])cc1 | -0.215
99 | Cc1nn(-c2ccccc2)c(N2CCCC2)c1/C=N/NC(=O)c1cc2ccccc2cc1O | -0.617
100 | Cc1ccc(NC(=O)CN(C)CC(=O)Nc2c(C)cccc2C)c(Br)c1 | 0.011
101 | COC(c1ccccc1)c1c(-c2ccccc2)nn(C)c1Cl (centres undefined) | -0.346
102 | CCCCOc1ccc(CNC(=S)N/N=C/c2ccc(OC)c(OC)c2)cc1 | -0.0858
103 | COC(=O)c1ccc(NC(=O)CSc2nc3cccnc3n2C)cc1 | -0.0928
104 | N#Cc1c(NCCCO)nc(-c2ccco2)c2c1CCCC2 | 0.394
105 | CCCCCC(=O)N1CC2(C)CN(C(=O)CCCCC)CC(C)(C1)C2=O | 0.292
106 | COc1ccc(C2C(C(=O)c3sc(C)nc3C)=C(O)C(=O)N2CCN(C)C)cc1 (centres undefined) | 0.139
107 | COC(=O)CSc1ccc(-c2nc3ccc(C)cc3[nH]2)cn1 | 0.0297
108 | CC1CN(C(=O)c2cccc(C(=O)N3CC(C)OC(C)C3)c2)CC(C)O1 (centres undefined) | -0.281
109 | COC(=O)/C=C1\SC(=NC(=O)c2cccc(Cl)c2)NC1=O | -0.119
